# Results published in the supplement of paper PMC12217912.
# The list shows a part of the results. Sequences were assembled here from the parent chain. Values near 0.05 are background.
# B1: TEV protease; numbered along this chain (parent)
# chain: MGESLFKGPRDYNPISSSICHLTNESDGHTTSLYGIGFGPFIITNKHLFRRNNGTLVVQSLHGVFKVKDTTTLQQHLVDGRDMIIIRMPKDFPPFPQKLKFREPQREERICLVTTNFQTKSMSSMVSDTSCTFPSGDGIFWKHWIQTKDGQCGSPLVSTRDGFIVGIHSASNFTNTNNYFTSVPKNFMELLTNQEAQQWVSGWRLNADSVLWGGHKVFMVKPEEPFQPVKEATQL
# Variants of: B1
# Assay: raw area under fraction-flipped curve 0-4 h after induction (AUC4h, not background-subtracted), DNA-recorder readout of cleavage of the substrate (dimensionless); higher = more cleavage of the substrate by the protease variant
# Conditions: temperature: 34 °C; time window: 0-4 h after rhamnose induction
# Description: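 In vivo DNA recorder in E. coli TOP10(DE3) ΔrhaA at 34 °C. Each TEVp single-site mutant (parent TEVp 0) is paired with a single-site variant of the 7-mer TEVs (canonical ENLYFQ|S). The substrate sits between flexible linkers in a Bxb1-sfGFP-TEVs-SsrA fusion, so cleavage stabilises Bxb1 and speeds flipping of a recombination array, read by NGS. The value is the raw area under the fraction-flipped curve over 0-4 h after rhamnose induction (AUC4h), with ≥20 reads per time point. It is not background-subtracted; inactive controls average about 0.047.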
# 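Also: Bxb1 expression induced with 0.2% (w/v) L-rhamnose at OD600 near 0.5, cultures sampled hourly, flipped fraction per protease–substrate barcode pair counted by paired-end Illumina sequencing.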
Variant,area with substrate EALYFQS,area with substrate ECLYFQS,area with substrate EDLYFQS,area with substrate EELYFQS,area with substrate EGLYFQS,area with substrate EHLYFQS,area with substrate EILYFQS,area with substrate EKLYFQS,area with substrate ELLYFQS,area with substrate EMLYFQS,area with substrate EPLYFQS,area with substrate EQLYFQS,area with substrate ERLYFQS,area with substrate ESLYFQS,area with substrate EVLYFQS,area with substrate EWLYFQS,area with substrate EYLYFQS,area with substrate EFLYFQS,area with substrate ETLYFQS
F38M,0.0923,0.0875,0.117,0.107,0.0783,0.0724,0.0736,0.0933,0.0774,0.0995,0.109,0.099,0.0899,0.0884,0.0847,0.0923,0.0829,–,–
I42H,0.0418,0.0469,0.0321,0.0376,–,–,0.0381,0.0572,0.0483,0.0412,0.0322,0.0506,–,0.0537,0.0606,0.0377,0.0504,0.0412,–
I42N,0.0492,–,–,0.073,0.0492,0.0179,–,–,0.0586,0.0485,0.0516,–,0.0589,0.0514,0.0451,–,–,–,–
D27T,0.0917,0.0828,–,–,–,0.0769,0.0888,0.0843,0.0711,–,0.108,0.102,0.0923,0.0747,0.0699,0.0784,–,–,–
N45K,0.0549,0.0546,0.0629,0.0535,0.0505,0.0673,0.0495,0.0645,–,0.0652,–,0.0556,0.0504,0.0608,0.0597,–,–,0.0718,–
N45A,0.0884,0.0812,0.102,0.0805,0.0744,0.0592,0.0735,–,0.0653,–,–,0.109,0.0806,0.0836,0.0712,0.0627,0.0829,0.0942,0.0735
T55Y,0.0982,0.0815,–,–,0.0879,0.057,0.0649,–,–,–,0.1,–,0.0846,0.0777,–,–,0.0787,–,–
V58K,0.0721,0.0463,0.0574,–,–,0.0124,0.0399,–,–,0.0512,0.0604,–,0.0569,–,0.0465,0.0553,–,–,–
T30G,0.12,0.115,0.125,–,0.0878,0.1,0.0726,0.0878,0.0926,0.0963,0.0889,0.113,0.0802,0.0994,0.111,–,0.0749,0.116,–
H47I,0.0649,0.054,0.0555,0.065,0.0496,–,0.0475,0.0592,0.0584,0.0604,0.0519,0.0614,0.0711,0.0615,0.0564,0.0725,–,0.0607,–
R51L,0.103,0.0958,–,–,–,–,0.0769,–,–,0.128,0.103,–,0.094,0.0964,0.102,–,0.0952,0.0894,0.17
H62M,0.0665,0.0767,–,0.217,–,–,0.113,0.0873,–,–,–,0.12,0.0955,0.118,–,–,–,–,0.11
I43C,0.108,0.0865,0.108,0.0948,0.087,0.101,0.081,0.0851,0.0772,0.0837,0.102,0.0984,–,0.0829,0.0711,0.0793,0.0488,–,0.108
K66I,0.124,0.0982,–,–,–,–,0.097,–,0.105,–,0.132,–,0.096,0.0964,–,0.0471,–,0.0967,–
I36L,0.136,–,0.137,0.146,0.081,0.105,0.102,0.118,0.0914,0.1,0.143,0.133,–,0.119,0.104,0.0858,0.105,–,–
V67M,0.0474,0.103,–,–,0.0952,–,0.104,–,0.083,–,0.0971,0.0709,0.0742,–,0.0834,–,0.0859,–,–
G63D,0.0943,0.0861,0.109,0.117,0.0744,0.112,–,0.0906,0.0787,0.0889,0.125,0.0801,0.0901,0.102,0.0762,0.0578,–,–,–
N53R,0.0772,0.0704,–,0.0857,0.0955,0.0732,0.0711,0.0894,0.0767,–,0.0879,0.101,0.071,0.103,0.0999,0.0851,–,–,0.0946
K68L,0.0881,0.0692,0.132,–,0.0873,0.111,0.0921,0.0943,0.101,0.106,0.079,0.108,0.0684,0.103,0.0979,0.0862,0.109,–,0.104
K68E,0.12,0.115,–,–,–,–,0.116,0.112,0.0959,0.141,0.136,0.14,0.0997,–,–,0.09,–,0.117,0.119
F65T,0.125,0.102,0.107,0.097,0.0865,–,0.0868,0.1,0.0976,0.108,0.116,0.111,–,0.0928,0.0697,–,0.121,–,–
C20V,0.126,0.102,–,0.13,0.126,0.123,0.103,0.129,0.108,0.134,0.147,0.159,0.16,0.104,0.104,0.108,0.118,0.116,–
C20S,0.0867,0.0847,0.0979,0.101,–,0.094,0.0777,0.0885,0.0521,–,0.0936,–,–,0.088,0.0813,–,–,0.086,0.0791
C20T,0.108,0.0894,0.121,0.111,0.0907,0.0985,0.0945,0.107,0.0779,–,0.079,0.0908,0.0737,0.101,0.0879,0.0883,0.106,–,0.0777
Y34F,0.0922,0.103,–,0.121,0.0814,–,0.108,–,0.0902,0.106,0.116,–,0.0978,0.0598,0.0689,–,–,0.12,0.122
N52R,0.0684,0.0699,–,0.0741,–,0.0692,0.0685,0.0743,–,0.0684,0.0621,0.0762,0.0719,0.0889,–,–,–,–,0.084
